In PubChem BioAssay AID2060606 (Molecular Pharmacology Branch, DTP, NCI, 2025):
The source holds more than one record for some entries. This list holds those alone. An entry can have further records. The values listed for one entry repeat one measurement in other runs, samples, wells, individuals or studies. Additions like (4×) count equal records among those shown.

Test system: 922993-354-T-J3-PDC complex spheroids, viability, % test/control
Assay: Anticancer human tumor 922993-354-T-J3-PDC patient-derived endometrial carcinoma cell line growth inhibition [CLK]
Settings: stronger effect = lower value
Source text: A high-throughput screen of multi-cell type tumor spheroids was designed to identify active combinations of […] and targeted small molecules. Complex spheroids include a stromal component modeled by human endothelial cells (HUVEC) and fibroblasts modeled by human mesenchymal stem cells (MSCs). The concentration ranges selected for each drug and investigational agent were based upon clinically achievable concentrations if the clinical Cmax of the agent was known.
Compounds. The drugs and investigational agents: cirtuvivint (SM08502; NSC835563), CC-671 (NSC850746), vemurafenib (NSC761431), tapotoclax (NSC804041), sotorasib (NSC818433), adagrasib (NSC831453), MRTX-1133 (NSC836407), BAY2416964 (NSC825713), copanlisib (NSC816437), inavolisib (NSC800729), abemaciclib (NSC768073), osimertinib (NSC779217), entinostat (NSC756642), eltanexor (KPT-8602, NSC794443), venetoclax (NSC766270), ceralasertib (NSC777638), bortezomib (NSC756655), olaparib (NSC753686), talazoparib (NSC767125), alisertib (NSC759677), peposertib (NSC802822), gemcitabine (NSC613327), 5-fluorouracil (NSC19893), SN-38 (NSC673596), oxaliplatin (NSC266046), paclitaxel (NSC125973), and doxorubicin (NSC123127), were obtained from the National Cancer Institute (NCI) Developmental Therapeutics Program Chemical Repository. The FDA-approved anticancer drug set is available from the Developmental Therapeutics Program at https://dtp.cancer.gov/organization/dscb/obtaining/available plates.htm. […] The stock solutions were prepared in dimethyl sulfoxide (DMSO, Sigma-Aldrich, St. Louis, MO, cat. D2650), except for the platinum complexes which were prepared in saline (Quality Biological, Gaithersburg, MD, cat. 114-055-101), at 800-fold the tested concentration and stored at -70 degrees C prior to their use. All drugs and investigational agents were tested over a range starting from a high concentration at or near the clinical Cmax and decreasing in half-log increments. If the clinical Cmax for an agent had not been determined, the highest concentration tested was 10 microM.
Cell Culture. […]
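Further: spheroids exposed to the agents for 7 days before readout.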

Row | Compound | viability, T/C (compound alone 0.0316 µM) | viability, T/C (compound alone 0.316 µM)
1 | CN1CCN(c2cc(C(=O)Nc3cc4cc(-c5cnn(C)c5)ccc4cn3)ccn2)CC1 | 112, 128, 108, 106, 103, 102, 107, 95.1, 93.9, 89.9, 125, 115% | 36.8, 30.9, 35.6, 49.8, 35.2, 41.6 (2×), 47.4, 40.3, 56.9, 45.4, 45.3%
2 | CNC(=O)c1ccc(Nc2nc(OC3CCCC3)c3c(-c4ccc5nc(C)oc5c4)c[nH]c3n2)c(OC)c1 |  | 59.2, 54.7, 57.6, 56.3, 67.2, 71.5, 65.9, 57.2, 44.3, 69.1, 67.7, 60%
